The full ranking holds about 81,000 sequences; the median of “one-hybrid fitness for binding NBS DNA” is about -0.1, and the highest 2% start at about 0.36. This is one part of the list.
B1: Caulobacter ParB omega fusion; a variant is named by its letters at X, in order, B8GW30 (parent)
chain: MESVVVGEPGMSEGRRGLGRGLSALLGEVDAAPAQAPGEQLGGSREAPIEILQRNPDQPRRTFREEDLEDLSNSIREKGVLQPILVRPSPDTAGEYQIVAGERAWRAAQRAGLKTVPIMVRELDDLAVLEIGIIENVQRADLNVLEEALSYKVLMEKFERTQENIAQTIGKSXSHVANXMRLLXLPDEVQSYLVSGELTAXHARAIAAAADPVALAKQIIEGGLSVRETEALARKAPNLSAGKSKGGRPPRVKDTDTQALESDLSSVLGLDVSIDHRGSTGTLTITYATLEQLDDLCNRLTRGI

Variants of: B1
Test: one-hybrid fitness for binding NBS DNA (the Noc-binding site; scaled: cognate 1, non-cognate 0); higher = stronger binding
Settings: with NBS DNA site
In short: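 Pre- and post-selection plasmids were Illumina-sequenced, three replicate libraries were pooled, and any variant with under 10 reads was removed. The libraries were Caulobacter ParB with four specificity codons randomised, selected in E. coli USO through a HIS3 reporter whose site is 19 bp from the promoter. Cells grew 48 hours at 37°C on M9 without histidine, with 0.1 mM IPTG and 5 mM 3-AT. Fitness is the log change in variant-to-wild-type read ratio, rescaled against cognate and non-cognate.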

Variant | one-hybrid fitness for binding NBS DNA
QNHL | ≤ 0.2
ICQC | ≤ 0.2
VFPN | ≤ 0.2
TVQV | ≤ 0.2
RSKL | ≤ 0.2
LWYR | ≤ 0.2
TGEG | ≤ 0.2
NSSD | ≤ 0.2
GCVS | ≤ 0.2
GNLG | ≤ 0.2
KNLD | ≤ 0.2
AVLG | ≤ 0.2
YCTC | ≤ 0.2
FFSR | ≤ 0.2
QQYW | ≤ 0.2
PGKK | ≤ 0.2
AAMS | ≤ 0.2
GQYR | ≤ 0.2
VTMC | ≤ 0.2
RPRH | ≤ 0.2
VQHW | ≤ 0.2
QNKP | ≤ 0.2
HMNC | ≤ 0.2
RDPQ | ≤ 0.2

Variant | one-hybrid fitness for binding NBS DNA
ISEV | ≤ 0.2
GIYT | ≤ 0.2
REIC | ≤ 0.2
MPEG | ≤ 0.2
YHDY | ≤ 0.2
MDNR | ≤ 0.2
PEAC | ≤ 0.2
VTQG | ≤ 0.2
FMST | ≤ 0.2
PIPR | ≤ 0.2
WTKC | ≤ 0.2
NRKY | ≤ 0.2
QPVQ | 0.598
VHGC | ≤ 0.2
RKQM | ≤ 0.2
RCKF | ≤ 0.2
DFER | ≤ 0.2
APNL | ≤ 0.2
QYNN | ≤ 0.2
PWTA | ≤ 0.2
TDAW | ≤ 0.2
TRQG | ≤ 0.2
ITRL | ≤ 0.2
MLPC | ≤ 0.2

Variant | one-hybrid fitness for binding NBS DNA
NINV | ≤ 0.2
HQLT | ≤ 0.2
TLHL | ≤ 0.2
RIYC | ≤ 0.2
SFWR | ≤ 0.2
DMAR | ≤ 0.2
YVDA | ≤ 0.2
CAIS | ≤ 0.2
HGRR | ≤ 0.2
RRTD | ≤ 0.2
ECHE | ≤ 0.2
CLCG | ≤ 0.2
RHGW | ≤ 0.2
RKEN | ≤ 0.2
GTSL | ≤ 0.2
GTFE | ≤ 0.2
RMVL | ≤ 0.2
QNLD | ≤ 0.2
RDHY | ≤ 0.2
QISF | ≤ 0.2
QYEV | ≤ 0.2
WGLR | ≤ 0.2
TAKK | ≤ 0.2
FVVG | ≤ 0.2

Variant | one-hybrid fitness for binding NBS DNA
IRRC | ≤ 0.2
VWHT | ≤ 0.2
IPSC | ≤ 0.2
THTG | ≤ 0.2
CTRR | 0.238
NPFK | ≤ 0.2
SASR | ≤ 0.2
CWKG | ≤ 0.2
GLRA | ≤ 0.2
CYMR | ≤ 0.2
RQPN | ≤ 0.2
RYMS | 0.307
ACCG | ≤ 0.2
RDSP | ≤ 0.2
SPQM | ≤ 0.2
GLVG | ≤ 0.2
ADCA | ≤ 0.2
RYQV | ≤ 0.2
MLFC | ≤ 0.2
DYLT | ≤ 0.2
LEAW | ≤ 0.2
PERR | ≤ 0.2
TAFT | ≤ 0.2
WDRR | ≤ 0.2

Variant | one-hybrid fitness for binding NBS DNA
PFIC | ≤ 0.2
PHGW | ≤ 0.2
RWKG | ≤ 0.2
ARNA | ≤ 0.2
RICP | ≤ 0.2
ITNK | ≤ 0.2
TSFQ | ≤ 0.2
YMWL | ≤ 0.2
AYNG | ≤ 0.2
TVTM | ≤ 0.2
PLFD | ≤ 0.2
ARYC | ≤ 0.2
QVSN | ≤ 0.2
AYMR | ≤ 0.2
VIVG | ≤ 0.2
ADKR | ≤ 0.2
LYAY | ≤ 0.2
KDVS | ≤ 0.2
DGVM | ≤ 0.2
TLWF | ≤ 0.2
RVDI | ≤ 0.2
QHWT | 0.375
VTPF | ≤ 0.2
REHI | ≤ 0.2

Variant | one-hybrid fitness for binding NBS DNA
DRSF | ≤ 0.2
RKGA | 0.326
KGWC | ≤ 0.2
CGDV | ≤ 0.2
TTEI | ≤ 0.2
QRHL | 0.283
TYTQ | ≤ 0.2
DARM | ≤ 0.2
QQQL | ≤ 0.2
VLWA | ≤ 0.2
HTCS | ≤ 0.2
MDWG | ≤ 0.2
QSWG | ≤ 0.2
ALAE | ≤ 0.2
SYPF | ≤ 0.2
KTDF | ≤ 0.2
LNVS | ≤ 0.2
CTRN | ≤ 0.2
SKSA | ≤ 0.2
QPRA | ≤ 0.2
CCGC | ≤ 0.2
TLCQ | ≤ 0.2
HRWY | ≤ 0.2
CRCD | ≤ 0.2

Variant | one-hybrid fitness for binding NBS DNA
HWHS | ≤ 0.2
RQVF | ≤ 0.2
LVNG | ≤ 0.2
WLQM | ≤ 0.2
NNLK | ≤ 0.2
DALM | ≤ 0.2
HWGS | ≤ 0.2
DCRG | ≤ 0.2
WTTT | ≤ 0.2
QMSQ | 0.242
MTVT | ≤ 0.2
VTTS | ≤ 0.2
NFGG | ≤ 0.2
PDCE | ≤ 0.2
QLEC | ≤ 0.2
GEVS | ≤ 0.2
VHFR | ≤ 0.2
EPDT | ≤ 0.2
SNQI | ≤ 0.2
RKEL | ≤ 0.2
AYFI | ≤ 0.2
ADPK | ≤ 0.2
EMVP | ≤ 0.2
NKTT | ≤ 0.2

Variant | one-hybrid fitness for binding NBS DNA
VTAW | ≤ 0.2
LGTN | ≤ 0.2
GAIS | ≤ 0.2
WGKT | ≤ 0.2
CHPW | ≤ 0.2
QLAH | ≤ 0.2
AFLC | ≤ 0.2
SHVE | ≤ 0.2
LPDC | ≤ 0.2
SDYK | ≤ 0.2
IEPG | ≤ 0.2
KFNT | ≤ 0.2
WMGC | ≤ 0.2
AHSF | ≤ 0.2
RHVS | 0.242
RQKH | 0.376
PVND | ≤ 0.2
SCVN | ≤ 0.2
PRTG | ≤ 0.2
HWLH | ≤ 0.2
APYR | ≤ 0.2
QSET | 0.253
SNKR | ≤ 0.2
AGRP | ≤ 0.2

Variant | one-hybrid fitness for binding NBS DNA
FCYM | ≤ 0.2
IICR | ≤ 0.2
WFVS | ≤ 0.2
KSCQ | ≤ 0.2
FMKS | ≤ 0.2
SDMA | ≤ 0.2
WTVL | ≤ 0.2
SFKW | ≤ 0.2
TGRN | ≤ 0.2
RTGH | 0.271
NQKD | ≤ 0.2
WHHC | ≤ 0.2
LLGN | ≤ 0.2
LSHY | ≤ 0.2
FGCC | ≤ 0.2
MKGG | ≤ 0.2
AKAN | ≤ 0.2
TCHS | ≤ 0.2
QNTL | ≤ 0.2
EQSR | ≤ 0.2
KRCD | ≤ 0.2
SLSM | ≤ 0.2
PLED | ≤ 0.2
VLMM | ≤ 0.2

Variant | one-hybrid fitness for binding NBS DNA
DADY | ≤ 0.2
SCYL | ≤ 0.2
VVRN | ≤ 0.2
WYNW | ≤ 0.2
GHIS | ≤ 0.2
GQYF | ≤ 0.2
DMDC | ≤ 0.2
MRIT | ≤ 0.2
AWEG | ≤ 0.2
ALCL | ≤ 0.2
RDKL | ≤ 0.2
DMSC | ≤ 0.2
FCRT | ≤ 0.2
WHRR | ≤ 0.2
VGPS | ≤ 0.2
YLVK | ≤ 0.2
LANE | ≤ 0.2
TSVW | ≤ 0.2
MWLG | ≤ 0.2
YPKR | ≤ 0.2
HRQL | ≤ 0.2
KASI | ≤ 0.2
FHAE | ≤ 0.2
WSSG | ≤ 0.2

Variant | one-hybrid fitness for binding NBS DNA
AVTE | ≤ 0.2
WVIC | ≤ 0.2
KMWF | ≤ 0.2
VMAG | ≤ 0.2
RYDN | ≤ 0.2
IPTF | ≤ 0.2
AQCG | ≤ 0.2
VRHT | 0.265
PWDE | ≤ 0.2
VLDV | ≤ 0.2
DFWV | ≤ 0.2
QCKM | 0.464
SALA | ≤ 0.2
MLLC | ≤ 0.2
DLQG | ≤ 0.2
QALL | ≤ 0.2
TFRC | ≤ 0.2
DDPT | ≤ 0.2
NVQL | ≤ 0.2
HRPE | ≤ 0.2
TVRR | ≤ 0.2
GPSN | ≤ 0.2
DANW | ≤ 0.2
AGGN | ≤ 0.2

Variant | one-hybrid fitness for binding NBS DNA
KFRS | ≤ 0.2
FKPA | ≤ 0.2
YAYV | ≤ 0.2
TCCT | ≤ 0.2
QLNR | 0.551
LNCV | ≤ 0.2
DRAV | ≤ 0.2
ITCS | ≤ 0.2
RRQD | ≤ 0.2
RCTP | ≤ 0.2
VCVF | ≤ 0.2
TKPM | ≤ 0.2
FQPR | ≤ 0.2
RMHT | 0.448
PSNK | ≤ 0.2
STHE | ≤ 0.2
VKGF | ≤ 0.2
QLVR | 0.34
DHAI | ≤ 0.2
SKWR | ≤ 0.2
QPTF | ≤ 0.2
PVDL | ≤ 0.2
VMPR | ≤ 0.2
ATIG | ≤ 0.2

Variant | one-hybrid fitness for binding NBS DNA
NMYG | ≤ 0.2
ADKA | ≤ 0.2
VQKH | ≤ 0.2
ARFY | ≤ 0.2
EINP | ≤ 0.2
RGKQ | ≤ 0.2
IELS | ≤ 0.2
RTSM | ≤ 0.2
SLNL | ≤ 0.2
GNKT | ≤ 0.2
KHSC | ≤ 0.2
WSPT | ≤ 0.2
NKNS | ≤ 0.2
KVWS | ≤ 0.2
VMIS | ≤ 0.2
APGW | ≤ 0.2
LDSK | ≤ 0.2
YCIC | ≤ 0.2

From a collection of fitness landscapes (doi:10.1016/j.celrep.2020.107928)
